In paper PMC6265451:
No constants are given. Whether binding was seen depends on the method and setting. Some results given as binding are weak or reduced against the parent protein; the word gives no strength.

Chains of the proteins cited; added tags and fusions are not shown.
UniProt P29468: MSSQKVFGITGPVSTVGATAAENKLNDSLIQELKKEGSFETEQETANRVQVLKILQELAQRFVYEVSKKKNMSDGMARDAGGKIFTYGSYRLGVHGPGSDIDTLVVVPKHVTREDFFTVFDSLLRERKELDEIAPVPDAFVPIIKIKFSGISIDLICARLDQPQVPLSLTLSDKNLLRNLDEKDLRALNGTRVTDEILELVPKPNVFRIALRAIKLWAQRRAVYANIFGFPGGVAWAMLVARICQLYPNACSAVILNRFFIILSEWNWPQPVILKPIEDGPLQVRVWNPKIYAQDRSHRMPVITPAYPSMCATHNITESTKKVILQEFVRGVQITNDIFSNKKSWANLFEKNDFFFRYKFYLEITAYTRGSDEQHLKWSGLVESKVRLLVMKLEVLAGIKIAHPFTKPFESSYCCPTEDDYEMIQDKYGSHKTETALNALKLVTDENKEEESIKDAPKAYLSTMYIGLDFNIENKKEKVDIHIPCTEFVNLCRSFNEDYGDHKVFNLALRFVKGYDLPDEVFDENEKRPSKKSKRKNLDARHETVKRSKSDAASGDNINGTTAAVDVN

How the values were obtained:
[1] = target: T1, Mpe1-TAPS (S. cerevisiae) (UniProt P35728); assay: SEC; TAPS affinity purification from tagged yeast strain, then Superose 6 PC 3.2/30 in 20 mM HEPES pH 7.9, 150 mM KCl, 3 mM DTT, 0.5 mM Mg(OAc)2, 0.5 mM MnCl2; fractions on Coomassie-stained SDS-PAGE
T1 sequence: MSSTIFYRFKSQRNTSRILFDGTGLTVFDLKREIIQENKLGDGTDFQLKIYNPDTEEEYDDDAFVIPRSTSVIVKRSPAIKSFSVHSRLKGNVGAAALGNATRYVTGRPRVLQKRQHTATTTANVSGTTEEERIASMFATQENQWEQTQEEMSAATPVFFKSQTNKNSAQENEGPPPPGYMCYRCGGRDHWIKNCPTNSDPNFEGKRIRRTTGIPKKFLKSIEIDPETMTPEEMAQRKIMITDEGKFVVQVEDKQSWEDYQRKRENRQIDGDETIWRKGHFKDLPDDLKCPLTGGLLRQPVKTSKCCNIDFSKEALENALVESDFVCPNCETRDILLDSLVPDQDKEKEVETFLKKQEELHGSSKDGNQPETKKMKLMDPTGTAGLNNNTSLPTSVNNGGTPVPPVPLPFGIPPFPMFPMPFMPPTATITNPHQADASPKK

[2] = target: Pap1-TAPS (S. cerevisiae) (UniProt P29468); assay: as above
[3] = target: T2, Ref2-TAPS (S. cerevisiae) (UniProt P42073); assay: as above
T2 sequence: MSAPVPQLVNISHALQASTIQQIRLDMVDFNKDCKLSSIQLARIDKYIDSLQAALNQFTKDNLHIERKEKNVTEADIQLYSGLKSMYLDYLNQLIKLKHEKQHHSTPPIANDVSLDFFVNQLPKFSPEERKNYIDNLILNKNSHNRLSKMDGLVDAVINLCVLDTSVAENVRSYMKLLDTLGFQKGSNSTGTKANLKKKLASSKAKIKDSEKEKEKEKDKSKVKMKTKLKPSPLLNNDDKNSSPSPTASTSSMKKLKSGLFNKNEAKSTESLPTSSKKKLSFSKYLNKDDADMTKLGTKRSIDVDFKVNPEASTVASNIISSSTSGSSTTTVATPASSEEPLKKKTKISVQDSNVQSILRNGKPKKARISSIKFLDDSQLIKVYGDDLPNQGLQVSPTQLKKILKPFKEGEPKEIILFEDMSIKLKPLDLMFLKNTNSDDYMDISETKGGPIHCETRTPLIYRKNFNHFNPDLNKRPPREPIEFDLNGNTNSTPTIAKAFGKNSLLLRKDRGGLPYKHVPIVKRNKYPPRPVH

[4] = target: T3, Syc1-TAPS (S. cerevisiae) (UniProt Q08553); assay: as above
T3 sequence: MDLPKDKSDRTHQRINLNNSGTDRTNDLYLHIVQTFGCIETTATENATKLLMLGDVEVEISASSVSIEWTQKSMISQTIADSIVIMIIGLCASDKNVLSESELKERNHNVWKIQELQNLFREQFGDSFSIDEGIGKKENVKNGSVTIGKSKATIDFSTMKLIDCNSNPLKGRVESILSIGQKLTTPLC

[5] = target: T2, Ref2-TAPS (S. cerevisiae); assay: anion exchange chromatography; TAPS affinity purification from tagged yeast strain (Ref2-tagged; Pta1-tagged with SYC1 deleted), then Mono Q 5/50 GL in 20 mM HEPES pH 7.9, 150 mM KCl, 3 mM DTT, 0.5 mM Mg(OAc)2; APT eluted at 260 mM KCl and CPF at 400 mM KCl
[6] = target: T4, Pta1-TAPS (S. cerevisiae) (UniProt Q01329); assay: SEC; TAPS affinity purification from tagged yeast strain, then Superose 6 PC 3.2/30 in 20 mM HEPES pH 7.9, 150 mM KCl, 3 mM DTT, 0.5 mM Mg(OAc)2, 0.5 mM MnCl2; fractions on Coomassie-stained SDS-PAGE
T4 sequence: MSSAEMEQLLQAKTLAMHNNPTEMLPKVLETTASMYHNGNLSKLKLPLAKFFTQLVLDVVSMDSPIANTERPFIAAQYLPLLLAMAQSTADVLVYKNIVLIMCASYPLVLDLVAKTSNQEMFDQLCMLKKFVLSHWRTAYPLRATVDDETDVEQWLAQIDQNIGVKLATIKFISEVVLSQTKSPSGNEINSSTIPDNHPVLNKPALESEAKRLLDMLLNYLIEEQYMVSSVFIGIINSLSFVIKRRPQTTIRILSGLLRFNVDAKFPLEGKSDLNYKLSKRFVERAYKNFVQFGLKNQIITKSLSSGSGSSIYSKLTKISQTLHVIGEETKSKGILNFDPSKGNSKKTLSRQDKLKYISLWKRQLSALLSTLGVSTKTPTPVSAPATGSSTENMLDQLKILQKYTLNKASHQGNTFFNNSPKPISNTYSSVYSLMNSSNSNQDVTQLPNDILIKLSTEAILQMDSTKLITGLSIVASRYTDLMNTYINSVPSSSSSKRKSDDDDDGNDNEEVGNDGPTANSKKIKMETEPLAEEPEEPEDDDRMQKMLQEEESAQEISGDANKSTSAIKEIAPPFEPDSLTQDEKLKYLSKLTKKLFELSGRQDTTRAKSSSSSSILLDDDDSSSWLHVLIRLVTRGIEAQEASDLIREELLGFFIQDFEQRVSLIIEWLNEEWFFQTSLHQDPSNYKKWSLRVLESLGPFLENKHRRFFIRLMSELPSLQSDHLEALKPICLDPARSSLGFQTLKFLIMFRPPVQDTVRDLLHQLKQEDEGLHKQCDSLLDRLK

[7] = target: T4, Pta1-TAPS (S. cerevisiae); assay: anion exchange chromatography; TAPS affinity purification from tagged yeast strain (Ref2-tagged; Pta1-tagged with SYC1 deleted), then Mono Q 5/50 GL in 20 mM HEPES pH 7.9, 150 mM KCl, 3 mM DTT, 0.5 mM Mg(OAc)2; APT eluted at 260 mM KCl and CPF at 400 mM KCl

Row | binding [1] | binding [2] | binding [3] | binding [4] | binding [5] | binding [6] | binding [7] | Binder
1 | binds | binds | binds | binds | binds | – | – | Pta1 (protein, UniProt Q01329 1-785) MSSAEMEQLLQAKTLAMHNNPTEMLPKVLETTASMYHNGNLSKLKLPLAKFFTQLVLDVVSMDSPIANTERPFIAAQYLPLLLAMAQSTADVLVYKNIVLIMCASYPLVLDLVAKTSNQEMFDQLCMLKKFVLSHWRTAYPLRATVDDETDVEQWLAQIDQNIGVKLATIKFISEVVLSQTKSPSGNEINSSTIPDNHPVLNKPALESEAKRLLDMLLNYLIEEQYMVSSVFIGIINSLSFVIKRRPQTTIRILSGLLRFNVDAKFPLEGKSDLNYKLSKRFVERAYKNFVQFGLKNQIITKSLSSGSGSSIYSKLTKISQTLHVIGEETKSKGILNFDPSKGNSKKTLSRQDKLKYISLWKRQLSALLSTLGVSTKTPTPVSAPATGSSTENMLDQLKILQKYTLNKASHQGNTFFNNSPKPISNTYSSVYSLMNSSNSNQDVTQLPNDILIKLSTEAILQMDSTKLITGLSIVASRYTDLMNTYINSVPSSSSSKRKSDDDDDGNDNEEVGNDGPTANSKKIKMETEPLAEEPEEPEDDDRMQKMLQEEESAQEISGDANKSTSAIKEIAPPFEPDSLTQDEKLKYLSKLTKKLFELSGRQDTTRAKSSSSSSILLDDDDSSSWLHVLIRLVTRGIEAQEASDLIREELLGFFIQDFEQRVSLIIEWLNEEWFFQTSLHQDPSNYKKWSLRVLESLGPFLENKHRRFFIRLMSELPSLQSDHLEALKPICLDPARSSLGFQTLKFLIMFRPPVQDTVRDLLHQLKQEDEGLHKQCDSLLDRLK
2 | – | binds | binds | no binding | binds | binds | binds | Yth1 (protein, UniProt Q06102 1-208) MSLIHPDTAKYPFKFEPFLRQEYSFSLDPDRPICEFYNSREGPKSCPRGPLCPKKHVLPIFQNKIVCRHWLRGLCKKNDQCEYLHEYNLRKMPECVFFSKNGYCTQSPDCQYLHIDPASKIPKCENYEMGFCPLGSSCPRRHIKKVFCQRYMTGFCPLGKDECDMEHPQFIIPDEGSKLRIKRDDEINTRKMDEEKERRLNAIINGEV
3 | no binding | no binding | binds | – | binds | binds | – | Syc1 (protein, UniProt Q08553 1-188) MDLPKDKSDRTHQRINLNNSGTDRTNDLYLHIVQTFGCIETTATENATKLLMLGDVEVEISASSVSIEWTQKSMISQTIADSIVIMIIGLCASDKNVLSESELKERNHNVWKIQELQNLFREQFGDSFSIDEGIGKKENVKNGSVTIGKSKATIDFSTMKLIDCNSNPLKGRVESILSIGQKLTTPLC

Continued, binder first:

Row | Binder | binding [1] | binding [2] | binding [3] | binding [4] | binding [5] | binding [6] | binding [7]
4 | Mpe1 (protein, UniProt P35728 1-441) MSSTIFYRFKSQRNTSRILFDGTGLTVFDLKREIIQENKLGDGTDFQLKIYNPDTEEEYDDDAFVIPRSTSVIVKRSPAIKSFSVHSRLKGNVGAAALGNATRYVTGRPRVLQKRQHTATTTANVSGTTEEERIASMFATQENQWEQTQEEMSAATPVFFKSQTNKNSAQENEGPPPPGYMCYRCGGRDHWIKNCPTNSDPNFEGKRIRRTTGIPKKFLKSIEIDPETMTPEEMAQRKIMITDEGKFVVQVEDKQSWEDYQRKRENRQIDGDETIWRKGHFKDLPDDLKCPLTGGLLRQPVKTSKCCNIDFSKEALENALVESDFVCPNCETRDILLDSLVPDQDKEKEVETFLKKQEELHGSSKDGNQPETKKMKLMDPTGTAGLNNNTSLPTSVNNGGTPVPPVPLPFGIPPFPMFPMPFMPPTATITNPHQADASPKK | – | – | binds | no binding | binds | binds | binds
5 | Fip1 (protein, UniProt P45976 1-327) MSSSEDEDDKFLYGSDSELALPSSKRSRDDEADAGASSNPDIVKRQKFDSPVEETPATARDDRSDEDIYSDSSDDDSDSDLEVIISLGPDPTRLDAKLLDSYSTAATSSSKDVISVATDVSNTITKTSDERLITEGEANQGVTATTVKATESDGNVPKAMTGSIDLDKEGIFDSVGITTIDPEVLKEKPWRQPGANLSDYFNYGFNEFTWMEYLHRQEKLQQDYNPRRILMGLLSLQQQGKLNSANDTDSNLGNIIDNNNNVNNANMSNLNSNMGNSMSGTPNPPAPPMHPSFPPLPMFGSFPPFPMPGMMPPMNQQPNQNQNQNSK | – | binds | binds | no binding | binds | binds | binds
6 | Ipa1/Yjr141w (protein, UniProt P47172 1-347) MVQYVVEWLPRIQSISVVVEGWKQVEIKNLKDTLMSISGDEEQVEDILLPVEVEEKVDASYKFKNRGKDLEWMTKLRSKSSKIYDSSIMSLPDGRWTKEELRSDSDFSIECLNCKQKIISKDNCQVLNDMPSEFWFELMDYWHCHKPDVKEDKSSYTRFETLKPSKNEILIGSSYFQGTPATFENVATTKENDNVLCIKCSAVLGQVTAGSLYKLHKWKLQLIRSGNTYKFPPECDITISLINVVKANSCRYVLVKCKTESLLVWIFSVDIGVTLTGNKSFKRAMKLLYTNSVTTINRCLNRQVVEELDFQETSFNAFYSALQHTNALLPSSMKKIGEWTISYTSLI | binds | – | – | – | – | – | –
